# Test results: paper PMC12136788
# Positions count from the first letter of the chain named. This is one part of the list.
# B1: chr15:23003119:23003120:+_ENSG00000068793_ENST00000560848|hu_hu|motif|central (ssRNA)
# RNA: GGGAGUUCUACAGUCCGACGAUCUUUUUAGAUCGAAAAGCACCCCCUUUAACAGGUACAGAGAUACUGAAAAAUAGUCCCGGAAAAUCUCACUAAAUAGUUUACGGAGAGAAAGGCAUGCCAUGUUGAGUUACGGAGUGCAGCCAACAGAGGAUUGAGCAUCA
# B2: chr1:58468927:58468928:-_ENSMUSG00000026034_ENSMUST00000148330|mus_mus|mus_mus_mus_hu_False|88_98 (ssRNA)
# RNA: GGGAGUUCUACAGUCCGACGAUCAAUUACUGAAAAAUGAAAGAUGUUAUUUGGUUUUGUACUUAAUGAACCAAAUUACCCAAACAAAAUAAACAUGGCAAUAUAAAAAUGUUAAGAAUUUACAAAGCUGUACAAAAUAACUUACAACAGAGGAUUGAGCAUCA
# B3: chr1:95367794:95367795:-_ENSG00000117519_ENST00000538964|hu_hu|FALSE|FALSE (ssRNA)
# RNA: GGGAGUUCUACAGUCCGACGAUCAUUUGCUUCGAAUAUGUCAUGUGGCUUCAUACCAUAAGCCUGAAUAGCUUUAAUAAAGUUGCCAAUAUUCUCCAACUGAGGCCAGUUCAGUGAGGACUCGUUGACCUUCUUCACUGAGCCCAACAGAGGAUUGAGCAUCA
# B4: 31020732_31021150_1074_CDS_ENSG00000171456_ENST00000306058|human|control|control (ssRNA)
# RNA: GGGAGUUCUACAGUCCGACGAUCUUUGAUUUCAGCCUCCUCCUGGCCCACGUUCUGCUGCAAUGACUCUUCUUUGGUCAAACCCAGCUUCUGUCCAUAGUAGUCUUCAAAGAACUUUUCUUUCCAUUGUUCCACCUUCUUUUCCAACAGAGGAUUGAGCAUCA
# B5: chr10:73857132:73857133:-_ENSG00000138303_ENST00000317168|hu_hu|FALSE|FALSE (ssRNA)
# RNA: GGGAGUUCUACAGUCCGACGAUCUUUCCAAGAUCCACCUCAGGAGAAGUCAAUUUGUCCACAGGAAGCGUAGUUUCCAAAGCUGUCUACGGUGAACCUCUGAGAGAUGUGAAUUGAAUUCAGCUUUAGGGAGCCAAAGUAGAACAACAGAGGAUUGAGCAUCA
# B6: 10426189_10434434_903_3pUTR_ENSMUSG00000027534_ENSMUST00000029047|mouse|control|control (ssRNA)
# RNA: GGGAGUUCUACAGUCCGACGAUCACCUGGUGGAUCAUCCAGACAAAGAAAUUCUCUCACUGCAAGGCAGUUAGCAAUGUCCUUGUGAGCUACUAGGUUCUGAAGAAAUGCUUGUAGUCCUAAUUGUCUAUCUUCUAGAAAUUCCAACAGAGGAUUGAGCAUCA
# B7: chr7:91631701:91631702:+_ENSG00000127914_ENST00000356239|hu_mus|motif|central (ssRNA)
# RNA: GGGAGUUCUACAGUCCGACGAUCUUCAUUUAGAUAAAGGCAUUGUUGUUGAAGGUCCUCGGUCUCCUUCCUCAGCAUCGCGGCUUCUUUUUGCCACCUCGAGUCUGCCGACUUGCUUGUGCUGGGAUCUACGGCAAUGGAUCUCAACAGAGGAUUGAGCAUCA
# B8: 40523664_40526014_3401_CDS_ENSG00000180182_ENST00000324817|human|control|control (ssRNA)
# RNA: GGGAGUUCUACAGUCCGACGAUCUUGAGGAGAUCCUGGCCAGUUCCCUGCUCGUCCACUUGGUGACACCAUAGUGUAUGGGGAACUAGGGUCAAGAGUUCCAUGUGGACUAGCAAAACUGGCCCCUGGUCCUAUUGAGAUUCCCAACAGAGGAUUGAGCAUCA
# B9: chr10:33214929:33214930:-_ENSG00000150093_ENST00000302278|hu_hu|hu_hu_hu_mus_True|18_38 (ssRNA)
# RNA: GGGAGUUCUACAGUCCGACGAUCAACAAGUUCAUUGAAAAACUCUCCUCUGUCAGUAAGACUAAGCACAUUUUUGUAGCUAAAUGGGCUGGUGCAGUUCUGUUCACUUGUACAAGGGUUCCUGAGCUUUGCUGGGGUUGUGCUCAACAGAGGAUUGAGCAUCA
# B10: chrX:98862621:98862622:+_ENSMUSG00000034160_ENSMUST00000044475|mus_hu|mus_mus_mus_hu_False|8_18 (ssRNA)
# RNA: GGGAGUUCUACAGUCCGACGAUCCUGCAUCUCCUUUAGAGUGUUUCCCAUAUUAGAGUAGGCAUCAGCAAAGGUAGGACUGAUUCGAAUAGCCUCCUUAUAAUGCAUCAGAGCUUCCUGCAGCUUGCCCUGCUGUUGCAGUACCAACAGAGGAUUGAGCAUCA
# B11: chrX:98862621:98862622:+_ENSMUSG00000034160_ENSMUST00000044475|mus_hu|mus_mus_mus_hu_False|18_18 (ssRNA)
# RNA: B10 RNA with U135C
# B12: chr17:62500844:62500845:-_ENSG00000108654_ENST00000583239|hu_hu|motif|central (ssRNA)
# RNA: GGGAGUUCUACAGUCCGACGAUCCUUGAUAAAAAUUCUUCUCAAAUUUAGGCAGCUCAUCAAGAUUCCACUUCUUUUUAACGGAUUUCUCCCCAGGGUUUCCAAACUUCUUUCCAGAUAAGGGCCCUGCCCUACUUCCUCCAACAACAGAGGAUUGAGCAUCA
# B13: chr3:100058692:100058693:+_ENSG00000114021_ENST00000480073|hu_hu|motif|central (ssRNA)
# RNA: GGGAGUUCUACAGUCCGACGAUCAUAUUCAGGAAAAUAUUUCGCUCCAUAUGGAGAAUUAAAGCAUUCCGGCAAAGAAACGGUUUUGGCUCCUUGCGUUGCUGCCUCCCGGAUGAAGCUACAAGCGCGAGUGACGUUAUCUGACAACAGAGGAUUGAGCAUCA
# B14: chr7:36427155:36427156:-_ENSMUSG00000030417_ENSMUST00000118501|mus_hu|FALSE|FALSE (ssRNA)
# RNA: GGGAGUUCUACAGUCCGACGAUCACAAAGUAAAUAAUCAGAUCUUAACUUCUGUCCUAGACUUGUUCCGUUAAGUUCUAGUCUGUGAGCACUUGUAGUUCAAUAAUCGUCAUCUUCAUCAGAGUCCAUUACUUUUCUUCUGUUCAACAGAGGAUUGAGCAUCA
# B15: chr4:103533647:103533648:+_ENSG00000109320_ENST00000505458|hu_mus|FALSE|FALSE (ssRNA)
# RNA: GGGAGUUCUACAGUCCGACGAUCCCCAGACCCAACUUCUGUGCCAGAGUGGCCCAGUUUUUGUCUGGAUCAGGAAUUUCCAGCAGUUUGCAGAGUUGUAGCCUCGUGUCUUCUGUCAGCUGCUUCAUGUCCCCUUGUGGUAGUCAACAGAGGAUUGAGCAUCA
# B16: chr1:163112212:163112213:-_ENSG00000143248_ENST00000313961|hu_hu|hu_hu_hu_mus_False|28_38 (ssRNA)
# RNA: GGGAGUUCUACAGUCCGACGAUCUUUUAUUAUCAGUAAGAGUGAGUUACAUACUAGGCAAAGUAUUGGAUACAAUAAUCAGGAAACAAACACUAUUUUUCUUGAAUUUAAAAUAUAAUGAGCGAAGUGCUGGCACAGGACUUACAACAGAGGAUUGAGCAUCA
# B17: chr3:176767854:176767855:-_ENSG00000177565_ENST00000430069|hu_hu|hu_hu_hu_mus_False|18_108 (ssRNA)
# RNA: GGGAGUUCUACAGUCCGACGAUCGACAUCCUUGUUGCUGGGCACGUCCUGCCCUCCUUCCCGUAUGCAGUGUCUAAGCACGAGCUGCGUAGGGCCACUCGUGCUGUUCUCACUGAGAUUCCAUAUUCUUGCCGUGGAGUCUCCCAACAGAGGAUUGAGCAUCA
# B18: chr1:145598734:145598735:-_ENSMUSG00000018199_ENSMUST00000159879|mus_mus|motif|central (ssRNA)
# RNA: GGGAGUUCUACAGUCCGACGAUCUGGUCUGAUAUUUUUAUUGCAAGAGUCUCAAGGUUUUAAUACUAUCUUCAAUUCUCGGAAUGACUUUGCUCAUAGGUUUGAACCAAAACAUUUGCCUUUUGCCUCAAAAAUUUCCCUUAACAACAGAGGAUUGAGCAUCA
# B19: 104393069_104396071_385_CDS_ENSMUSG00000020687_ENSMUST00000093923|mouse|control|control (ssRNA)
# RNA: GGGAGUUCUACAGUCCGACGAUCAGUGAAGCAAGCUGAAUCUCCAAACUCAGUGACAAGGUCGUCAUGGCUUUUCUGCUUAUUAAACACUCCACCAGAUAAGAUCUGUUCCCCUUCUGCAAGCUUGCUGAGGUCAACACAACACAACAGAGGAUUGAGCAUCA
# B20: 34915464_34918627_154_CDS_ENSG00000159140_ENST00000381679|human|control|control (ssRNA)
# RNA: GGGAGUUCUACAGUCCGACGAUCCACUAUUUCUUCAUUUGGUAGACUCCUGGCAGAGGCAGCUGCAUCACCCGCCUGGUUUCCUUCAAUGGGUGUAUUUGUUUCACCAUUCAGCUGGCCUUCAUUCCUUCCACUGGAAAGCUCCAACAGAGGAUUGAGCAUCA
# B21: 76003592_76003712_12668_CDS_ENSMUSG00000022565_ENSMUST00000071869|mouse|control|control (ssRNA)
# RNA: GGGAGUUCUACAGUCCGACGAUCUGAGCGGUCAAUGAGGUUCUUGGUGAUGGCGUCGUCGAUGUCAUACUGGCGACCAGAGCGGCGGUCGAUGAUCAUAGACUUGACGACGCCAUCUGAGGAGGAGAUGGUGAUCUCUUCCCACAACAGAGGAUUGAGCAUCA
# B22: chr1:244855233:244855234:+_ENSG00000121644_ENST00000302550|hu_mus|hu_hu_hu_mus_True|78_78 (ssRNA)
# RNA: GGGAGUUCUACAGUCCGACGAUCCAUCAGAUGGUAGGCGUUGCCCUUAUACUCUUUUCCCAGUUCUUCUACAAUUUUCUCUAUAUCAUCUUCUAGAAAGUCCGUACUUCCUAGAACAACAGCUUCUUUAAAUUUAAAUGUUUCCAACAGAGGAUUGAGCAUCA
# Target: T1, UNK ZnF1-3 (human, UniProt Q9C0B0 31-174)
# T1 sequence: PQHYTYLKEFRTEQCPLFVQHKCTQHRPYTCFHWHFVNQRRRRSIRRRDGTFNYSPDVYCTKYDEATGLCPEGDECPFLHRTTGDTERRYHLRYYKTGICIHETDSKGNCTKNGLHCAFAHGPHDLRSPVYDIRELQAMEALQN
# Test: nsRBNS (natural sequence RNA bind-n-seq); RBNS binding buffer (assumed for nsRBNS): 25 mM Tris pH 7.5, 150 mM KCl, 3 mM MgCl2, 0.01% Triton X-100, 500 ug/ml BSA, 20 U/ml SUPERase-In, 4 C; UNK is unkempt and MSI1 is Musashi-1; names of the RNAs are library labels; protein concentration not given here; high values mean tight binding
row,Binder,binding signal
1,B1,1.71 enrichment R
2,B2,1.39 enrichment R
3,B3,0.282 enrichment R
4,B4,0.426 enrichment R
5,B5,1.17 enrichment R
6,B6,0.402 enrichment R
7,B7,0.487 enrichment R
8,B8,0.346 enrichment R
9,B9,0.962 enrichment R
10,B10,1.3 enrichment R
11,B11,0.989 enrichment R
12,B12,1.18 enrichment R
13,B13,0.534 enrichment R
14,B14,0.744 enrichment R
15,B15,0.622 enrichment R
16,B16,2.03 enrichment R
17,B17,0.41 enrichment R
18,B18,0.665 enrichment R
19,B19,0.958 enrichment R
20,B20,0.636 enrichment R
21,B21,0.551 enrichment R
22,B22,1.26 enrichment R
